Experimental data: PubChem BioAssay AID1458 (National Center for Advancing Translational Sciences (NCATS), 2008)
The whole screen tested about 210,000 compounds, of which about 5,900 (2.8%) were called active. Inconclusive means that the source gave no clear call. Such entries were picked first, then a sample of the others. Calls follow the shape of the dose curve; as a rule, active = well fitted activation curve with a large enough effect; inconclusive = small, poorly fitted or top-dose-only effect; inactive = no such curve, though single readings can be large or run the other way. Potencies of inconclusive entries are doubtful fits and often do not repeat.

test: qHTS Assay for Enhancers of SMN2 Splice Variant Expression; conditions: HEK293 SMN2-luciferase splicing reporter, luminescence, 30-36 h; activity change, positive = activation: at 46.1 µM (top of the series); also: nearly all actives have a fitted effect of over 55% in size; as to activity change, positive = activation: % of control where 0% means no effect
Outline: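 qHTS luciferase splicing reporter: luminescence rises when SMN2 exon 7 is included in transfected HEK293 cells. Compound exposure lasted 30-36 h at 37C, with 4.5 mM final sodium butyrate as control, followed by a ONE-Glo read.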
Potency is read from the fitted curve at half-maximal effect; tags tell the direction and shape of the fitted curve.

SMILES | activity change, positive = activation | Potency
CC(C)NC(=O)c1cc2c(s1)CCCC2 | inactive: -17.4% | –
Cc1cccc(NC(=O)/C(C#N)=C/c2ccc(C)o2)c1 | – | active: 12.6 µM
O=[N+]([O-])c1ccc(Cl)c(/C=N/n2c(-c3cccnc3)n[nH]c2=S)c1 | – | inconclusive: 0.0141 µM [activator, full curve, poor fit]
CCOC(=O)Cc1csc(NC(=O)CSc2nnc(C)n2C)n1 | – | inconclusive: 0.0022 µM [activator, full curve, poor fit]
CCc1ccc(NC(=O)Cn2c(=O)c3cc(Cl)ccc3n3nncc23)cc1 | inactive: 8.32% | –
Cn1cnc([N+](=O)[O-])c1Sc1ncnc2nc[nH]c12 | – | inactive
O=C(N/N=C1\CCCc2ccccc21)c1cccc(Br)c1 | – | inconclusive: 35.5 µM [activator, single point]
Cc1ccc(OCc2nc(-c3ccccn3)n[nH]2)cc1 | – | inconclusive: 12.6 µM [activator, partial curve]
CCCCOc1cccc(C(=O)NC(=S)Nc2ccc(Cl)c(C(=O)O)c2)c1 | – | inconclusive: 0.158 µM [activator, full curve, poor fit]
Cc1ccc(SCCNC(=O)/C=C/c2ccc(Cl)cc2)cc1 | – | inconclusive: 1 µM [activator, single point]
CC1CCN(C(=O)CCCOc2cc(=O)n(C)c3ccccc23)CC1 | – | inconclusive: 20 µM [activator, partial curve, poor fit]
Cc1cc(S(=O)(=O)N2CCOCC2)ccc1F | – | inconclusive: 0.0562 µM [activator, full curve]
CCCCOc1ccc(C(=O)NCC(=O)NCC(=O)OCC)cc1 | – | inconclusive: 14.1 µM [activator, partial curve, poor fit]
O=C(CSc1ccc(-c2cccs2)nn1)N1CCCCCC1 | – | inconclusive: 12.6 µM [activator, single point]
C=CCNC(=O)c1cccn1-c1ccsc1C(=O)OC | – | inconclusive: 0.0089 µM [activator, full curve, poor fit]
CC1=C(C(=O)OC(C)C)C2(O)C(=O)c3ccccc3C2(O)N1 (stereo unspecified) | inactive: 2.17% | –
O=C(Nc1ccccc1F)c1ccc(COc2ccc(Cl)cc2Cl)o1 | – | active: 12.6 µM
CCCCNC(=S)NCCN1CCN(C(=S)NCCCC)CC1 | – | inconclusive: 2 µM [activator, partial curve]
Nc1c2c(nc3sc4c(c13)CCCCC4)CCCCC2 | – | inconclusive: 31.6 µM [activator, single point]
CCn1c(CSc2nc3ccccc3s2)nnc1SCC(=O)c1ccc(O)cc1O | – | inconclusive: 3.98 µM [activator, full curve]
Cc1cc(N2CCN(c3ccccc3)CC2)n2nnnc2n1 | – | inconclusive: 0.0178 µM [activator, full curve, poor fit]
CN(C)c1ccc(NC(=S)NCC2CCCO2)cc1 (stereo unspecified) | – | active: 12.6 µM
COc1cc(/C=N/NC(=O)c2cccc([N+](=O)[O-])c2)ccc1OCc1ccc(C)cc1 | – | inconclusive: 11.2 µM [activator, partial curve, poor fit]

SMILES | activity change, positive = activation | Potency
O=S1CC/C(=N\O)c2ccccc21 (stereo unspecified) | – | inconclusive: 0.0316 µM [activator, full curve, poor fit]
COC(=O)c1sccc1-c1ccc(C(=O)Nc2ccccc2)o1 | – | inconclusive: 35.5 µM [activator, single point]
CCCc1cc(=O)[nH]c(SCC(=O)Nc2nonc2N)n1 | – | inconclusive: 6.31 µM [activator, partial curve, poor fit]
C=CCn1c(SCC(=O)NC2CCS(=O)(=O)C2)nnc1-c1ccncc1 (stereo unspecified) | – | inconclusive: 31.6 µM [activator, single point]
CN1CCN(/C=N/c2c(C#N)cnn2-c2ccccc2)CC1 | – | inconclusive: 28.2 µM [activator, partial curve]
COc1ccc(C(=O)/C=C/Nc2ccc([N+](=O)[O-])cc2)cc1 | – | inconclusive: 3.98 µM [activator, full curve, poor fit]
COc1ccc(-n2c(=O)c3ccc(C(=O)NCc4ccc(C)cc4)cc3n(Cc3ccc(Cl)cc3)c2=O)cc1 | inactive: 6.62% | –
Nc1nc(Cl)nc2c1ncn2[C@@H]1O[C@H](CO)[C@@H](O)[C@H]1O | – | inactive
COc1ccc(Br)cc1S(=O)(=O)N1CC(C)OC(C)C1 (stereo unspecified) | inactive: 0.805% | –
CCn1c2ccccc2c2cc(NC(=O)c3cccc(OC)c3)ccc21 | – | inconclusive: 15.8 µM [activator, single point]
COc1ccccc1NC(=S)N/N=C/c1ccc(O)cc1 | – | active: 11.2 µM
CCCCC(=O)Nc1ccc(NC(=O)CCCC)nc1 | – | inconclusive: 35.5 µM [activator, partial curve, poor fit]
O=C(CN1C(=O)COc2ccc(S(=O)(=O)N3CCOCC3)cc21)N1CCN(c2ccccc2F)CC1 | inactive: -0.394% | –
CCn1cc(C(=O)N2CCN(c3ccc(OC)cc3)CC2)c(=O)c2cc(S(=O)(=O)N3CCOCC3)ccc21 | – | inconclusive: 6.31 µM [activator, partial curve, poor fit]
COc1ccc(OCC(=O)Nc2ccc(-c3nc4cc(C)c(C)cc4o3)cc2)cc1 | – | active: 0.562 µM
Cc1nn(-c2ccccc2)c(C)c1/C=N/NC(=O)c1cccs1 | – | active: 17.8 µM
CN1CCN(NC(=S)Nc2ccccc2)CC1 | – | inconclusive: 22.4 µM [activator, single point]
O=C(NCCCN1CCN(c2ccccc2F)CC1)c1ccc2nc(N3CCCCC3)sc2c1 | – | active: 5.62 µM
COCCN(C(=O)C1CC1)c1nnc(-c2ccc(C)cc2)s1 | inactive: -15.4% | –
CC(C)CNC(=S)NC(=O)c1ccc(F)cc1 | – | inconclusive: 1.12 µM [activator, full curve, poor fit]
O=C(O)c1cc(-c2ccc(Cl)s2)nc2ccccc12 | – | inconclusive: 35.5 µM [activator, single point]
O=C(c1ccc2nc3ccc(Cl)cc3c(=O)n2c1)N1CCOCC1 | – | inconclusive: 11.2 µM [activator, partial curve]
COC(=O)Nc1ccc(S(=O)(=O)Nc2cnc3ccccc3n2)cc1 | inactive: -16.2% | –
